From publication PMC8481289
No constants are given. Whether binding was seen depends on the method and setting. Some binding calls cover weakened binding; strength is not graded here. Each block holds one substance with its values, some of them ahead of it.

The chains behind the UniProt entries cited, without tags or fusion partners. Where a name states a change or a piece, a line headed by the entry shows the natural chain unless it says otherwise.
UniProt Q9Y3C8: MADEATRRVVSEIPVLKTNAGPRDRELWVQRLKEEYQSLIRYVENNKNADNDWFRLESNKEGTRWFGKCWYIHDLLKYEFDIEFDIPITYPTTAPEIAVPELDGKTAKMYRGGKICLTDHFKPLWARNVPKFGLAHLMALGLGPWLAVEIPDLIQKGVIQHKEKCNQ
UniProt Q9GZZ9: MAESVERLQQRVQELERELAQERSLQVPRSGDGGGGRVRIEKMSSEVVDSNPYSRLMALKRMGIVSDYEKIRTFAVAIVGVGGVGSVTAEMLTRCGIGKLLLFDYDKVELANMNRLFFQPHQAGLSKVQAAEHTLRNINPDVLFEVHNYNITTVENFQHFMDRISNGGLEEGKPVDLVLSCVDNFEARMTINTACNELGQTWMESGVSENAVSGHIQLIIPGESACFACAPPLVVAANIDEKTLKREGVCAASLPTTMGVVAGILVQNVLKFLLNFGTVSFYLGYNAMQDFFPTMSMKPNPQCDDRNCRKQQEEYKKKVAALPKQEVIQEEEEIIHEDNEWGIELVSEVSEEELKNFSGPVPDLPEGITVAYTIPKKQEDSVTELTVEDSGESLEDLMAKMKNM

What was measured:
UFC1 (human) = UFC1 (human) (UniProt Q9Y3C8); experiment: condition: 9.00E-04 M in the syringe, 1.00E-04 M in the cell (Supplementary Table 2); ITC; MicroCal PEAQ ITC, 25 °C; Tris 20 mM pH 7.5, NaCl 50 mM, DTT 2 mM; UBA5 construct in the syringe into UFC1 in the cell (Supplementary Table 2); 19 injections of 2 μl; fitted to the two sets of sites model; both purified
[1] = target: UBA5 (347-404) fragment (human) (UniProt Q9GZZ9); experiment: SEC-MALS; Superdex 75 10/300 GL; 20 mM Tris pH 7.5, 50 mM NaCl; mass calculated with ASTRA 7; both purified
UFC1 (WT) (human) = UFC1 (WT) (human) (UniProt Q9Y3C8); experiment: NMR titration; UBA5 fragments (347-404: 50-200 μM; 347-392: 0.4-1.6 mM) titrated into 200 μM 15N-labelled UFC1; 2D 1H-15N HSQC, 25 °C; 50 mM HEPES pH 7.0, 50 mM KCl, 1 mM DTT, 0.03% NaN3, 10% D2O; both purified
UBA5 L397R (human) = UBA5 L397R (human) (UniProt Q9GZZ9); experiment: ITC; UFC1 titrated into the UBA5 construct (heat per mole of UFC1); MicroCal PEAQ ITC, 25 °C; 20 mM Tris pH 7.5, 50 mM NaCl, 2 mM DTT; 19 injections of 2 μl; fitted to the two sets of sites model; both purified
UBA5 M401R (human) = UBA5 M401R (human) (UniProt Q9GZZ9); experiment: as above

Substance: UBA5 1-404 L397R (from UniProt Q9GZZ9 1-404) (enzyme)
binding (UFC1 (human)): no binding

Substance: UBA5 1-404 M401R (from UniProt Q9GZZ9 1-404) (enzyme)
binding (UFC1 (human)): no binding

Substance: UFC1 (WT) (from UniProt Q9Y3C8 1-167) (enzyme)
binding (UBA5 L397R (human)): no binding
binding (UBA5 M401R (human)): no binding

Next, values leading:

binding [1]: no binding
Substance: UBA5 (347-404) fragment (from UniProt Q9GZZ9 347-404) (domain or fragment)

binding (UFC1 (WT) (human)): binds weakly
Substance: UBA5 linker alone (residues 347–392) (from UniProt Q9GZZ9 347-392) (domain or fragment)
